# Test results as given in patent US20230009608A1, “GRK2 INHIBITORS AND USES THEREOF” (Cygnal Therapeutics, Inc., priority 2020, published 2023).
# The name of at least one read-out is uncertain.
# Test system: PAXF1657 control empty vector cell line
# Assay: 7-day proliferation assay, PAXF1657 control empty vector cell line (Example 9)
# Assay type: cell-based
# Conditions: Cell Line: PAXF1657 empty vector (EV) cell line
# Summary of the method: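 500 cells/well, RPMI1640 + 10% H.I. FBS, adhered overnight at 37° C. Compound 10-pt dilution, 30 μM-0.0002 μM final, 0.3% DMSO. 3 d, media + compound replaced, further 4 d. Viability by CellTiter-Glo; untreated plates read at time of dosing.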
row,Structure (SMILES),D: 7-day proliferation assay: % Minimum GeoMean (%)
1,COc1ccc(F)cc1CNC(=O)c1cccc(NCc2nnc(-c3ccncn3)n2C)c1,54.5
2,Cc1cnc(CNC(=O)c2cccc(NCc3nnc(-c4ccncn4)n3C)c2)c(C)c1,47.8
3,COc1cccc(CNC(=O)c2cccc(NCc3nnc(-c4ccncn4)n3C)c2)c1,65.9
4,CCn1nc(C)c(CNC(=O)c2cccc(NCc3nnc(-c4ccncn4)n3C)c2)n1,34.8
5,Cn1nccc1C(NC(=O)c1cccc(NCc2nnc(-c3ccncn3)n2C)c1)c1ccccc1 (stereo not shown),90.8
6,CC(C)c1ocnc1CNC(=O)c1cccc(NCc2nnc(-c3ccncn3)n2C)c1,85.3
7,COc1ccccc1[C@H](C)NC(=O)c1cccc(NCc2nnc(-c3ccncn3)n2C)c1,45.5
8,CC(NC(=O)c1cccc(NCc2nnc(-c3ccncn3)n2C)c1)c1ccsc1 (stereo not shown),73.4
9,CC(C)n1ncnc1CNC(=O)c1cccc(NCc2nnc(-c3ccncn3)n2C)c1,99.8
10,Cn1c(CNc2cccc(C(=O)N[C@@H](CF)c3ccccc3)c2)nnc1-c1ccncn1,47.1
11,Cn1c(CNc2cccc(C(=O)NCc3c(F)cccc3-n3cccn3)c2)nnc1-c1ccncn1,85.9
12,COC[C@H](NC(=O)c1cccc(NCc2nnc(-c3ccncn3)n2C)c1)c1ccccn1,56.8
13,Cn1c(CNc2cccc(C(=O)NC(CO)c3ccccc3F)c2)nnc1-c1ccncn1 (stereo not shown),57.7
14,Cn1c(CNc2cccc(C(=O)NCc3ccccc3CN3CCCC3=O)c2)nnc1-c1ccncn1,40
15,C[C@H](NC(=O)c1cccc(NCc2nnc(-c3ccncn3)n2C)c1)c1ncccc1F,63.6
16,Cn1c(CNc2cccc(C(=O)NCc3cccnc3OC(F)F)c2)nnc1-c1ccncn1,67.1
17,Cc1ncncc1[C@@H](C)NC(=O)c1cccc(NCc2nnc(-c3ccncn3)n2C)c1,66.9
18,Cn1c(CNc2cccc(C(=O)NC3CC(=O)c4ccccc43)c2)nnc1-c1ccncn1 (stereo not shown),61.1
19,Cn1c(CNc2cccc(C(=O)NC3CCOc4ncccc43)c2)nnc1-c1ccncn1 (stereo not shown),84.2
20,Cc1cc(C)c(CNC(=O)c2cccc(NCc3nnc(-c4ccncn4)n3C)c2)c(=O)[nH]1,78.9
21,Cc1cc(CO)cc(C)c1CNC(=O)c1cccc(NCc2nnc(-c3ccncn3)n2C)c1,51.3
22,Cc1ccc(C)c(CNC(=O)c2cccc(NCc3nnc(-c4ccncn4)n3C)c2)n1,16.2
23,CNS(=O)(=O)c1cccc(F)c1CNC(=O)c1cccc(NCc2nnc(-c3ccncn3)n2C)c1,47.1
24,Cn1c(CNc2cccc(C(=O)NCc3cccc4c3CCNC4)c2)nnc1-c1ccncn1,96.1
25,Cn1c(CNc2cccc(C(=O)NCc3cccc4c3CCOC4)c2)nnc1-c1ccncn1,37.8
26,Cn1c(CNc2cccc(C(=O)NCc3ccccc3CN3CCOCC3)c2)nnc1-c1ccncn1,59.8

row,Structure (SMILES),D: 7-day proliferation assay: % Minimum GeoMean (%)
1,CN(C)CCNc1ccccc1CNC(=O)c1cccc(NCc2nnc(-c3ccncn3)n2C)c1,84.4
2,Cn1c(CNc2cccc(C(=O)NCc3ccccc3NS(C)(=O)=O)c2)nnc1-c1ccncn1,65.6
3,CN(CCO)S(=O)(=O)c1ccccc1CNC(=O)c1cccc(NCc2nnc(-c3ccncn3)n2C)c1,54.3
4,CNc1ncccc1CNC(=O)c1cccc(NCc2nnc(-c3ccncn3)n2C)c1,43.3
5,Cn1c(CNc2cccc(C(=O)NCc3ncccc3Cl)c2)nnc1-c1ccncn1,40.6
6,Cn1c(CNc2cccc(C(=O)NCc3cnn(CCF)c3)c2)nnc1-c1ccncn1,67.5
7,Cn1c(CNc2cccc(C(=O)NCc3ccc(C(F)F)cc3)c2)nnc1-c1ccncn1,72.6
8,COc1cccc(CNC(=O)c2cccc(NCc3nnc(-c4ccncn4)n3C)c2)c1C,26.4
9,Cn1c(CNc2cccc(C(=O)NCc3cnn4c3CCCC4)c2)nnc1-c1ccncn1,59.3
10,Cn1c(CNc2cccc(C(=O)NCc3ccc(F)c(F)c3)c2)nnc1-c1ccncn1,65.1
11,CCOc1cccc(CNC(=O)c2cccc(NCc3nnc(-c4ccncn4)n3C)c2)c1,72
12,CCOc1ccc(CNC(=O)c2cccc(NCc3nnc(-c4ccncn4)n3C)c2)cc1,66.9
13,Cn1c(CNc2cccc(C(=O)NCc3ccc(C(F)F)nc3)c2)nnc1-c1ccncn1,71.2
14,CC1Oc2ccccc2C1NC(=O)c1cccc(NCc2nnc(-c3ccncn3)n2C)c1 (stereo not shown),62.1
15,COc1cccc(C)c1CNC(=O)c1cccc(NCc2nnc(-c3ccncn3)n2C)c1,53.2
16,COc1ccc(CNC(=O)c2cccc(NCc3nnc(-c4ccncn4)n3C)c2)cc1F,48.9
17,Cn1c(CNc2cccc(C(=O)NC3COc4ccccc4C3)c2)nnc1-c1ccncn1 (stereo not shown),68.1
18,Cc1ccc2c(c1)C(NC(=O)c1cccc(NCc3nnc(-c4ccncn4)n3C)c1)CO2 (stereo not shown),60.7
19,Cn1c(CNc2cccc(C(=O)NCC3COc4ccccc43)c2)nnc1-c1ccncn1 (stereo not shown),71.9
20,Cn1c(CNc2cccc(C(=O)NC(CCO)c3ccccc3)c2)nnc1-c1ccncn1 (stereo not shown),60.4
21,Cc1ccc(C(C)NC(=O)c2cccc(NCc3nnc(-c4ccncn4)n3C)c2)nc1 (stereo not shown),25.6
22,Cc1cncc(C(C)NC(=O)c2cccc(NCc3nnc(-c4ccncn4)n3C)c2)c1 (stereo not shown),56.8
23,CC(C)C(NC(=O)c1cccc(NCc2nnc(-c3ccncn3)n2C)c1)c1ccccn1 (stereo not shown),64.5
24,Cn1ccnc1C(NC(=O)c1cccc(NCc2nnc(-c3ccncn3)n2C)c1)C1CC1 (stereo not shown),47.4
25,COc1ccc(C(C)NC(=O)c2cccc(NCc3nnc(-c4ccncn4)n3C)c2)cn1 (stereo not shown),56.3
26,Cn1c(CNc2cccc(C(=O)NC(c3ccccn3)C3CC3)c2)nnc1-c1ccncn1 (stereo not shown),58.5

row,Structure (SMILES),D: 7-day proliferation assay: % Minimum GeoMean (%)
1,Cn1c(CNc2cccc(C(=O)NCc3ccccc3N3CCNCC3)c2)nnc1-c1ccncn1,71.9
2,Cn1c(CNc2cccc(C(=O)NC3CCc4c(O)cccc43)c2)nnc1-c1ccncn1 (stereo not shown),68.9
3,CN(C)S(=O)(=O)c1cccc(F)c1CNC(=O)c1cccc(NCc2nnc(-c3ccncn3)n2C)c1,26.9
4,Cn1c(CNc2cccc(C(=O)N[C@H](C#N)c3ccc(F)cc3F)c2)nnc1-c1ccncn1,42.7
5,Cn1c(CNc2cccc(C(=O)N[C@H](C#N)c3ccccc3C(F)(F)F)c2)nnc1-c1ccncn1,25
6,Cn1c(CNc2cccc(C(=O)N[C@@H](C#N)c3ccccc3F)c2)nnc1-c1ccncn1,29
7,Cn1c(CNc2cccc(C(=O)N[C@H](C#N)c3ccccc3F)c2)nnc1-c1ccncn1,29.7
8,Cn1c(CNc2cccc(C(=O)N[C@@H](C#N)c3cc(F)ccc3F)c2)nnc1-c1ccncn1,35
9,Cn1c(CNc2cccc(C(=O)N[C@H](C#N)c3cc(F)ccc3F)c2)nnc1-c1ccncn1,27.7
10,Cc1ccccc1[C@H](C#N)NC(=O)c1cccc(NCc2nnc(-c3ccncn3)n2C)c1,49
11,Cc1ccccc1[C@@H](C#N)NC(=O)c1cccc(NCc2nnc(-c3ccncn3)n2C)c1,48.6
12,Cn1c(CNc2cccc(C(=O)N[C@H](C#N)c3cccnc3)c2)nnc1-c1ccncn1,4.7
13,CCCCCOc1ccc2c(c1)[C@@H](NC(=O)c1cccc(NCc3nnc(-c4ccncn4)n3C)c1)CCO2,19.4
14,CCCCCOc1ccc2c(c1)[C@@H](NC(=O)c1cccc(NCc3nnc(-c4ccncn4)n3C)c1)CO2,27.8
15,CCCn1c(CNc2cccc(C(=O)N[C@@H](C)c3cccc(OC)c3)c2)nnc1-c1ccncn1,1.79
16,CCCn1c(CNc2cccc(C(=O)N[C@H](C)c3cccc(OC)c3)c2)nnc1-c1ccncn1,53.5
17,COc1cccc([C@H](C)NC(=O)c2cccc(NCc3nnc4n3CCOc3cnccc3-4)c2)c1,9.01
18,COc1cccc([C@@H](C)NC(=O)c2cccc(NCc3nnc4n3CCOc3cnccc3-4)c2)c1,56.5
19,COc1cccc([C@H](C)NC(=O)c2cccc(NCc3nnc(-c4ccncn4)n3CCO)c2)c1,30.1
20,COc1cccc([C@@H](C)NC(=O)c2cccc(NCc3nnc(-c4ccncn4)n3CCO)c2)c1,40.5
21,COc1cccc([C@H](C)NC(=O)c2cccc(NCc3nnc(-c4ccncc4)n3CCO)c2)c1,51.2
22,COc1cccc([C@@H](C)NC(=O)c2cccc(NCc3nnc(-c4ccncc4)n3CCO)c2)c1,68.8
23,C[C@H](NC(=O)c1cccc(NCc2nnc(-c3ccncc3)n2CCO)c1)c1ncccc1Cl,49.2
24,COc1cccc([C@H](C)NC(=O)c2cccc(NCc3nnc(-c4ccncc4F)n3C)c2)c1,34.1
